# Measured values taken from patent US10188647B2, “Combination therapy using P53 activator and c-Met inhibitor” (Samsung Electronics Co., Ltd., priority 2013, dated 2019).
# What was measured:
# Conditions in all cases: rank among the four antibodies selected in Reference Example 1.7
# [1] = biological target: T1, c-Met (Homo sapiens, UniProt P08581); assay: Affinity for c-Met of affinity-matured antibodies; assay type: binding
# [2] = system: Akt phosphorylation; assay: Akt phosphorylation degree of affinity-matured antibodies; assay type: cell-based
# [3] = biological target: T1, c-Met; assay: c-Met degradation degree of affinity-matured antibodies; assay type: cell-based
# T1 sequence (P08581 25-1390): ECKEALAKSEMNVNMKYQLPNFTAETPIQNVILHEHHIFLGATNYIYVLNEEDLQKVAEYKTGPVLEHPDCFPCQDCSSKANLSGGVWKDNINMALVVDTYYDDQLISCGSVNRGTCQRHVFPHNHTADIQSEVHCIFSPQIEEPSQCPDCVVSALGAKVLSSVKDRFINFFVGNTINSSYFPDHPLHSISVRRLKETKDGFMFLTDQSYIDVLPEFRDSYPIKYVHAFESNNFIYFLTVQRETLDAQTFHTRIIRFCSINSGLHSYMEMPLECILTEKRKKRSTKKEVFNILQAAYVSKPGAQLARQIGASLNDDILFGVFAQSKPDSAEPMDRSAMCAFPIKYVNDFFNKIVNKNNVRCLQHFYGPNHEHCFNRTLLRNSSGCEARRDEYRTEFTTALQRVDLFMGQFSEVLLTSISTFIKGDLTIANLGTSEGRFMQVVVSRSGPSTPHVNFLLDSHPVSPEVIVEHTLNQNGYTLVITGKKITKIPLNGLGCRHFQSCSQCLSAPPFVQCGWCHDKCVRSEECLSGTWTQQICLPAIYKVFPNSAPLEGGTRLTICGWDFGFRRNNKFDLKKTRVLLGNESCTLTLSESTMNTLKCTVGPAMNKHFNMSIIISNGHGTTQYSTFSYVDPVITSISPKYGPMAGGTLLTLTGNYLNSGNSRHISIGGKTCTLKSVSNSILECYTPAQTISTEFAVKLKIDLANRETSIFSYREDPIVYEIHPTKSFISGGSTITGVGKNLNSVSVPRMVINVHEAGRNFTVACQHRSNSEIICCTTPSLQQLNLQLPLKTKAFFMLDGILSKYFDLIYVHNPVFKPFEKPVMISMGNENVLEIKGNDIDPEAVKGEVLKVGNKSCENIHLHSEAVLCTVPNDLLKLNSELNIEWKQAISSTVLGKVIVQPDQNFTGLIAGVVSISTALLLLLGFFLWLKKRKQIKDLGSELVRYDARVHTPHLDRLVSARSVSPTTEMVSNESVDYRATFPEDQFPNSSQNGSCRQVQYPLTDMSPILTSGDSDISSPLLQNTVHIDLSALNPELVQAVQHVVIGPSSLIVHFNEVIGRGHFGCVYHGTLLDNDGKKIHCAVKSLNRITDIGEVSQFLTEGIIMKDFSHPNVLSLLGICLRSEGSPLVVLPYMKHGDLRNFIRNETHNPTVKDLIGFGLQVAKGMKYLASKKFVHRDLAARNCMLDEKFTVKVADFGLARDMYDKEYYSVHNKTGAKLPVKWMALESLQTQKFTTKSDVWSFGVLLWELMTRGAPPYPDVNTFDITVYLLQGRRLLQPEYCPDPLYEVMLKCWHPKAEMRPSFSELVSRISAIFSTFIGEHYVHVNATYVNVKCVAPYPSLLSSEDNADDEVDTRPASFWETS
molecule,measurement,setting,value
huAbF46-H4-A1: affinity-matured humanized anti-c-Met antibody of L3-1 origin (CDR-L3 SEQ ID NO: 13) (antibody) heavy: EVQLVESGGGLVQPGGSLRLSCAASGFTFTDYYMSWVRQAPGKGLEWLGFIRNKANGYTTEYSASVKGRFTISRDNSKNTLYLQMNSLRAEDTAVYYCARDNWFAYWGQGTLVTVSSASTKGPSVFPLAPSSKSTSGGTAALGCLVKDYFPEPVTVSWNSGALTSGVHTFPAVLQSSGLYSLSSVVTVPSSSLGTQTYICNVNHKPSNTKVDKKVEPKSCDCH[human IgG1 Fc not given here] light: DIQMTQSPSSLSASVGDRVTITCKSSQSLLASGNQNNYLAWHQQKPGKAPKMLIIWASTRVSGVPSRFSGSGSGTDFTLTISSLQPEDFATYYCQQSYSRPYTFGQGTKVEIKRTVAAPSVFIFPPSDEQLKSGTASVVCLLNNFYPREAKVQWKVDNALQSGNSQESVTEQDSKDSTYSLSSTLTLSKADYEKHKVYACEVTHQGLSSPVTKSFNRGEC,affinity for c-Met,[1],highest
same,Akt phosphorylation degree,[2],lowest
same,c-Met degradation degree,[3],lowest
